# Some of the results follow.
# B1: PhoQ; a variant is named by its letters at X, in order, P23837 (parent)
# chain: MKKLLRLFFPLSLRVRFLLATAAVVLVLSLAYGMVALIGYSVSFDKTTFRLLRGESNLFYTLAKWENNKLHVELPENIDKQSPTMTLIYDENGQLLWAQRDVPWLMKMIQPDWLKSNGFHEIEADVNDTSLLLSGDHSIQQQLQEVREDDDDAEMTHSVAVNVYPATSRMPKLTIVVVDTIPVELKSSYMVWSWFIYVLSANLLLVIPLLWVAAWWSLRPIEALAKEVRELEEHNRELLNPATTRELTSLVRNLNRLLKSERERYDKYRTTLTDLTHSLKTPLXXLQXXLRSLRSEKMSVSDAEPVMLEQISRISQQIGYYLHRASMRGGTLLSRELHPVAPLLDNLTSALNKVYQRKGVNISLDISPEISFVGEQNDFVEVMGNVLDNACKYCLEFVEISARQTDEHLYIVVEDDGPGIPLSKREVIFDRGQRVDTLRPGQGVGLAVAREITEQYEGKIVAGESMLGGARMEVIFGRQHSAPKDE
# Variants of: B1
# Experiment: enrichment ratio after two sorts for PhoP signalling (ratio (wild type AVST 3.29)); higher = more functional
# Settings: with PhoP (E. coli)
row,Variant,enrichment ratio
1,LFDK,≤ 0.25
2,STKD,≤ 0.25
3,SCEE,≤ 0.25
4,YNWW,≤ 0.25
5,PYKN,≤ 0.25
6,HEKK,≤ 0.25
7,IISE,≤ 0.25
8,LDEY,≤ 0.25
9,LSEL,≤ 0.25
10,AGRV,≤ 0.25
11,NKHV,≤ 0.25
12,HLLR,≤ 0.25
13,MYWE,≤ 0.25
14,FRHF,≤ 0.25
15,AMQD,≤ 0.25
16,VRES,≤ 0.25
17,NMHM,≤ 0.25
18,LRLQ,≤ 0.25
19,SFIW,≤ 0.25
20,YWRY,≤ 0.25
21,VPKM,≤ 0.25
22,GKQH,≤ 0.25
23,PPMW,≤ 0.25
24,MENW,≤ 0.25
25,DAFP,≤ 0.25
26,ILRH,≤ 0.25

row,Variant,enrichment ratio
1,VTQL,≤ 0.25
2,GFNI,≤ 0.25
3,TCMM,11.8
4,TDAF,≤ 0.25
5,VPNY,≤ 0.25
6,ASFW,≤ 0.25
7,NLKC,≤ 0.25
8,EDPM,≤ 0.25
9,TMAN,18.9
10,EVSW,≤ 0.25
11,FITA,≤ 0.25
12,TSGT,9.89
13,KGWM,≤ 0.25
14,MTHK,≤ 0.25
15,PWGK,≤ 0.25
16,LIRV,≤ 0.25
17,YPRE,≤ 0.25
18,GKTS,≤ 0.25
19,NPVH,≤ 0.25
20,MSRM,≤ 0.25
21,PAHH,≤ 0.25
22,WQPC,≤ 0.25
23,HCDD,≤ 0.25
24,NVDM,≤ 0.25
25,FINR,≤ 0.25
26,NDYF,≤ 0.25

row,Variant,enrichment ratio
1,QEAH,≤ 0.25
2,PTDP,≤ 0.25
3,QSHN,≤ 0.25
4,SIMK,28.9
5,AYPP,≤ 0.25
6,EEAD,≤ 0.25
7,LTAP,≤ 0.25
8,FADW,≤ 0.25
9,TPPS,≤ 0.25
10,STQE,≤ 0.25
11,FTCA,≤ 0.25
12,QYGG,≤ 0.25
13,YGFT,≤ 0.25
14,HWRI,≤ 0.25
15,KQVP,≤ 0.25
16,LLVW,≤ 0.25
17,NMDQ,≤ 0.25
18,AQSM,10.4
19,MMPT,≤ 0.25
20,IRYR,≤ 0.25
21,AFSD,≤ 0.25
22,VTPF,≤ 0.25
23,YKDS,≤ 0.25
24,VYHQ,≤ 0.25
25,KLVG,≤ 0.25
26,HWND,≤ 0.25

row,Variant,enrichment ratio
1,QHFG,1.55
2,QSFY,10
3,ELCV,≤ 0.25
4,GYQN,≤ 0.25
5,YFLY,≤ 0.25
6,IPVK,≤ 0.25
7,APVS,≤ 0.25
8,LDPV,≤ 0.25
9,IENR,≤ 0.25
10,ATEF,≤ 0.25
11,FWRQ,≤ 0.25
12,KSDP,≤ 0.25
13,AKKL,≤ 0.25
14,MTTK,≤ 0.25
15,WLKW,≤ 0.25
16,FCCT,≤ 0.25
17,QETL,≤ 0.25
18,RRRK,≤ 0.25
19,RKYD,≤ 0.25
20,VPPM,≤ 0.25
21,RMMD,≤ 0.25
22,SQEV,≤ 0.25
23,KMWK,≤ 0.25
24,EIIG,≤ 0.25
25,HWQK,≤ 0.25
26,VATS,≤ 0.25

row,Variant,enrichment ratio
1,GIRV,≤ 0.25
2,ENDG,≤ 0.25
3,SNAS,8.84
4,STNG,10.8
5,CKAF,≤ 0.25
6,QTAI,≤ 0.25
7,ILGW,≤ 0.25
8,AVKP,≤ 0.25
9,WMHM,≤ 0.25
10,HGDR,≤ 0.25
11,DTDY,≤ 0.25
12,KDWV,≤ 0.25
13,GMMP,≤ 0.25
14,HWRN,≤ 0.25
15,QYRR,≤ 0.25
16,TDHL,≤ 0.25
17,KELE,≤ 0.25
18,FNKM,≤ 0.25
19,KLEH,≤ 0.25
20,IQVK,≤ 0.25
21,HSWV,≤ 0.25
22,LVIH,≤ 0.25
23,FQPW,≤ 0.25
24,YPSA,≤ 0.25
25,IETS,≤ 0.25
26,YWKP,≤ 0.25

row,Variant,enrichment ratio
1,IYWW,≤ 0.25
2,VHVA,≤ 0.25
3,TRYA,≤ 0.25
4,PWSD,≤ 0.25
5,GAIE,≤ 0.25
6,QLCA,≤ 0.25
7,LPDQ,≤ 0.25
8,LAER,≤ 0.25
9,SAVG,0.763
10,PRQR,≤ 0.25
11,NPMM,≤ 0.25
12,TSWD,2.13
13,VVIH,≤ 0.25
14,GLYV,≤ 0.25
15,KVNP,≤ 0.25
16,RYPA,≤ 0.25
17,WNQK,≤ 0.25
18,QKSY,≤ 0.25
19,HHVW,≤ 0.25
20,VCNQ,≤ 0.25
21,VEQI,≤ 0.25
22,VPPA,≤ 0.25
23,SNWR,≤ 0.25

# Reference: a collection of fitness landscapes (doi:10.1126/science.1257360)
